From the supplement of paper PMC6531468
This is one part of the list. These are enrichments in a pooled selection; single values are uncertain. Each score is taken over the longer molecules that contain the sequence shown.

tested on: IMP3 KH3-4; test: 6-mer SELEX enrichment z-score vs GST control; IMP3 is the RNA-binding protein IGF2BP3; higher = more enriched by binding; details: construct: KH3-4 (377-579); SELEX round: R4
Description: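 SELEX-seq with GST-tagged IMP3 KH3-4 (Pro377-Lys579) and an N40 RNA pool, round 4. 6-mer z-score of sequence-tag enrichment normalised to the corresponding GST SELEX round; RNA k-mers written as DNA (T for U).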

Sequence of IMP3 KH3-4 (chain, as listed by the source): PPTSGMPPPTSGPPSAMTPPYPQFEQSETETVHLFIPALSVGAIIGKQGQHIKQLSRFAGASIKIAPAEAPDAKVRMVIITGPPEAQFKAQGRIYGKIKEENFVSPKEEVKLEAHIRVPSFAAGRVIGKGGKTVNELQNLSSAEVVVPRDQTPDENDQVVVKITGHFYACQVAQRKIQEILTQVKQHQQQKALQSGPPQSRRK

Row | Sequence | 6-mer SELEX enrichment z-score
1 | CAATCC | -1.12
2 | ATTCCC | -0.374
3 | CACCCT | -1.34
4 | AATGCT | 0.284
5 | AGCCGT | -0.914
6 | CGGCTG | 0.377
7 | AAGCCA | -0.815
8 | CCTGAT | -0.476
9 | TTGTCC | -0.115
10 | CGCGTG | -1.29
11 | AATTAG | 1.21
12 | AGCAGC | -0.03
13 | TGGTAT | 0.067
14 | GGGGCT | 0.848
15 | TGAGCT | -0.827
16 | CTCAGA | -0.664
17 | GGGACC | -0.842
18 | CGGGCT | -0.295
19 | GATCGC | -0.243
20 | ATCCGA | -1.68

Row | Sequence | 6-mer SELEX enrichment z-score
21 | ATGCCG | -0.436
22 | CTCGTG | -0.804
23 | GACATC | -0.603
24 | ACGGCC | 1.12
25 | GGCACG | 1.34
26 | CATGCT | 0.229
27 | TGCCAT | 0.138
28 | CGTTGC | -0.665
29 | TCCTCG | -0.515
30 | CAGGGG | 0.96
31 | CAGATC | -0.05
32 | CTACTC | -0.669
33 | AAATGC | -0.023
34 | GAGCCC | -1.44
35 | TACTTG | -0.149
36 | ACTCAT | -0.143
37 | GAGGGG | 1.45
38 | GCAGAT | 0.398
39 | GAGGCG | 0.747
40 | GAGGGA | 0.915
